Laboratory results taken from PubChem BioAssay AID504332 (National Center for Advancing Translational Sciences (NCATS), 2011).
About 31,000 (8.9%) of roughly 350,000 compounds were called active. This list was built around the results that the source calls inconclusive (neither active nor inactive); the mix of calls is not that of the screen. Calls come from the whole dose curve; as a rule, active = well fitted inhibition curve with a large enough effect; inconclusive = small, poorly fitted or top-dose-only effect; inactive = no such curve, though single readings can be large or run the other way. Where the call is inconclusive, the potency comes from a doubtful curve fit.

target: Histone-lysine N-methyltransferase EHMT2 (Homo sapiens) (UniProt Q96KQ7); assay: qHTS Assay for Inhibitors of Histone Lysine Methyltransferase G9a; conditions: G9a H3K9 monomethylation, AlphaScreen, 2 h; activity, negative = inhibition: at 59 µM (top of the series) unless noted; note: nearly all actives have a fitted effect of over 75% in size
Summary of the method: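 Readings reflect AlphaScreen signal from monomethyl-H3K9 antibody detection. HMT at 20 nM; substrate b-H3K9 500 nM; cofactor SAM 20 uM; 2 h RT reaction; compounds tested as titrations in qHTS with 15 min preincubation.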
% is set by controls: 0 for no effect and ±100 for the full control effect; potency is the fitted concentration of half-maximal effect; tags give direction and shape of the fitted curve.

Sequence of UniProt Q96KQ7 (Q96KQ7 whole entry, looked up): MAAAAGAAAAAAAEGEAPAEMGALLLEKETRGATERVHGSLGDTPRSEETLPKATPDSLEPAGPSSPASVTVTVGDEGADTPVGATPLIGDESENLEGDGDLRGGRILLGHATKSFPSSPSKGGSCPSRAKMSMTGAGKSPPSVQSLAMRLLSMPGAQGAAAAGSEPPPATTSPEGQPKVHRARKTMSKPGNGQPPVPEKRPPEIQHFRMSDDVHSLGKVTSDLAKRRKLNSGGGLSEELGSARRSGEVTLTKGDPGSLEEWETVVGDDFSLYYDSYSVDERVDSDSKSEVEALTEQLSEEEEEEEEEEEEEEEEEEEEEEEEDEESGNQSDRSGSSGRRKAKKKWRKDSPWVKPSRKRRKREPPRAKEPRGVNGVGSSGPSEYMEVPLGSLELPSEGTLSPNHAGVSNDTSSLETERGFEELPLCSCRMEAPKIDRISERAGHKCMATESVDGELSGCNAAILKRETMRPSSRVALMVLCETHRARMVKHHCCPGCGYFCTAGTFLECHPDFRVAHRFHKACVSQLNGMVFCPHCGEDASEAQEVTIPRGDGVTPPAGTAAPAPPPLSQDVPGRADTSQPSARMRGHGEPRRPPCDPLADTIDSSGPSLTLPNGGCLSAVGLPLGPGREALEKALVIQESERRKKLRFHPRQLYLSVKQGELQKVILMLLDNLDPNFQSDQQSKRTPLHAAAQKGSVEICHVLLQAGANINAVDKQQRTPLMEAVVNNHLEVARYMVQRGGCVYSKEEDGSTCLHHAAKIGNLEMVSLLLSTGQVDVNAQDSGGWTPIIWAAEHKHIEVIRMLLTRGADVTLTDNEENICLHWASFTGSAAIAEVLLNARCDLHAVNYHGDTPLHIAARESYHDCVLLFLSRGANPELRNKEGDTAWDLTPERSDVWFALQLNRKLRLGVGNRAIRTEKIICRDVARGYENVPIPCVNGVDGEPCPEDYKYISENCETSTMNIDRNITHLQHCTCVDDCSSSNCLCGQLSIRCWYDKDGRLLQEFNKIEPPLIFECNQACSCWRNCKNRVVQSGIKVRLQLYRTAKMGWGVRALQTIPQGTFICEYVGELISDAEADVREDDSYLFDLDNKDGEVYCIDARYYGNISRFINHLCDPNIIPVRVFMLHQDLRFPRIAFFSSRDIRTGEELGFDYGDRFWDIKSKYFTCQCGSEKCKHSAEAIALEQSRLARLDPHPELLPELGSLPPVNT

Structure (SMILES) | activity, negative = inhibition | Potency
O=C1CN=C(Nc2ccccc2Cl)N1c1ccccc1 | inconclusive: -57.2% [inhibitor] [at 0.501 µM] | 
COc1ccc(NS(=O)(=O)c2ccc3oc(SC(C)C(N)=O)nc3c2)cc1 (stereo not given) |  | inactive
COc1ccc2c(c1)O[C@@H](c1cccc(C(F)(F)F)c1)[C@H](OC(=O)N[C@H]1CCCc3ccccc31)C2=O |  | inconclusive: 89.1 µM [inhibitor, partial curve, poor fit]
O=C(/C=C/c1ccco1)N/C(=C\c1ccco1)C(=O)NCCc1nc2ccccc2[nH]1 |  | active: 44.7 µM
CC(=O)Nc1c(C)cc(OCC(=O)O)cc1C |  | inconclusive: 89.1 µM [inhibitor, single point]
CC(=O)c1ccc(NC(=O)CSc2nc3nc(C)cc(C)n3n2)cc1 |  | inconclusive: 89.1 µM [inhibitor, single point]
Cc1cc(C)cc(NC(=O)N2CCC(CN3CCCCCC3)CC2)c1 |  | inconclusive: 10 µM [inhibitor, partial curve, poor fit]
CN1CCN(c2ncnc3c2c(-c2ccccc2)cn3-c2ccc(F)cc2)CC1 |  | active: 44.7 µM
C=CCn1c(NC(=O)c2ccc(Br)o2)c(C(=O)OCC)sc1=S |  | active: 3.16 µM
c1ccc2c(c1)CN1CCCC1=N2 |  | inactive
COC(=O)c1c(NC(=O)/C(C#N)=C/c2ccc(OC)cc2)sc2c1CCC2 |  | inactive
O=C(NC1CC(=O)N(c2ccccc2)C1)C(c1ccccc1)c1ccccc1 (stereo not given) |  | inactive
CCN(CC)CCCNC(=O)C(C)n1c2ccccc2c2nc(=O)cc(C)n21 (stereo not given) |  | inactive
COc1ccc(NS(=O)(=O)c2ccc(N/N=C(\C)c3ccncc3)c([N+](=O)[O-])c2)cc1 |  | inconclusive: 0.355 µM [inhibitor, full curve, poor fit]
O=C(N/N=C/c1ccc([N+](=O)[O-])s1)C(O)c1ccccc1 (stereo not given) |  | inconclusive: 3.16 µM [inhibitor, full curve]
O=C(CSc1nc2nccnc2c(=O)n1CCc1c[nH]c2ccccc12)Nc1ccccc1 |  | inactive
Cc1cc2nnc(SCC(=O)Nc3cccc(S(=O)(=O)N4CCOCC4)c3)n2c2ccccc12 |  | active: 50.1 µM
O=C(O)C1CC=CCC1C(=O)Nc1ccc(F)c(F)c1 (stereo not given) |  | inactive
CCOc1cc(N2CCOCC2)c(OCC)cc1NC(=O)c1ccc(-n2ccnc2)c([N+](=O)[O-])c1 |  | inconclusive: 20 µM [inhibitor, full curve]
CCn1ccc(C(=O)NCCCN2CCCC2=O)n1 |  | inconclusive: 11.2 µM [inhibitor, partial curve, poor fit]
CCOC(=O)N1CCN(CCC(=O)Nc2ccccc2)CC1 | inactive: -0.171% [at 0.501 µM] | 
COc1cccc(NC(=O)CN(C)C(=O)c2cccc(S(=O)(=O)N3c4ccccc4CC3C)c2)c1 (stereo not given) |  | active: 15.8 µM
CCOC(=O)C1=C(C)NC(=O)CC1c1cc2c(cc1[N+](=O)[O-])OCO2 (stereo not given) |  | active: 22.4 µM

Structure (SMILES) | activity, negative = inhibition | Potency
COc1cc(OC)cc(C(=O)NC2CCN(Cc3nnnn3Cc3cccs3)CC2)c1 |  | inconclusive: 89.1 µM [inhibitor, single point]
O=C(Cc1ccc(-n2c(=O)c3sccc3n(CC(=O)Nc3ccccc3)c2=O)cc1)NCc1ccco1 |  | inconclusive: 63.1 µM [inhibitor, partial curve, poor fit]
CCN(CC)CC(=O)c1ccc(-c2ccccc2)cc1 |  | inconclusive: 3.16 µM [inhibitor, partial curve, poor fit]
COc1cccc(NC(=S)N(Cc2cccc(Br)c2)CC2CCC(C(=O)O)CC2)c1 (stereo not given) |  | inconclusive: 39.8 µM [inhibitor, partial curve]
COc1ccc(N2CCN(c3cnc4ccccc4n3)CC2)cc1 | inconclusive: -81.2% [inhibitor] | 
CC1(C)NC(=O)N(CC(=O)OCC(=O)c2ccc(F)cc2)C1=O |  | inconclusive: 89.1 µM [inhibitor, single point]
CCOC(=O)C1CCN(C(=O)CSc2nc3ncccc3[nH]2)CC1 |  | inconclusive: 89.1 µM [inhibitor, single point]
COC(=O)/C(=C(/F)Sc1cc(C)c(O)c(C)c1)C(F)(F)F |  | inconclusive: 28.2 µM [inhibitor, partial curve, poor fit]
Cc1cccc(-c2c3c(=O)n(C)c(=O)n(C)c3cn2CC2CCCO2)c1 (stereo not given) |  | active: 39.8 µM
COc1ccc(C(c2nnnn2C2CCCC2)N2CCN(C3CCCC3)CC2)cc1OC (stereo not given) |  | inconclusive: 20 µM [inhibitor, single point]
COc1ccc(N=Cc2sc(O)c3ccccc23)cc1 |  | inconclusive: 39.8 µM [inhibitor, single point]
CC1CN(S(=O)(=O)c2cccc(C(=O)Nc3ccccc3N3CCCC3)c2)CC(C)O1 (stereo not given) |  | active: 50.1 µM
O=C(CNC(=O)OCc1ccccc1)Nc1ccc(F)cc1 |  | inconclusive: 0.316 µM [inhibitor, full curve, poor fit]
OC1(CN2CCOCC2)C2CN3CCN(C2)CC1(c1ccccc1)C3 (stereo not given) |  | inactive
O=C(/C=C/c1ccccc1)N/C(=C/c1ccccc1)C(=O)Nc1ccc(C(=O)O)cc1 |  | inactive
O=S(=O)(NCC(c1cccnc1)N1CCN(c2ccc(F)cc2)CC1)c1ccc(F)cc1 (stereo not given) |  | inconclusive: 31.6 µM [inhibitor, single point]
S=C(N/N=C/c1ccc(Br)cc1)N1CCCCC1 |  | inactive
COc1ccc(CN2CCN(Cc3ccc4ccccc4c3)CC2)cc1OC | inactive: -1.33% [at 2.33 µM] | 
COCCn1c(C)cc(C(=O)COC(=O)c2ccc(NC(=O)CC#N)cc2)c1C |  | inconclusive: 3.16 µM [inhibitor, single point]
COc1ccc(C(=O)Nc2cc(Cl)ccc2Cl)c(OC)n1 |  | inconclusive: 0.708 µM [inhibitor, full curve, poor fit]
CCOC(=O)c1sc(=S)n(C)c1NC(=O)c1ccccc1Cl |  | active: 7.94 µM
Cc1cc(C)cc(-n2c(C)c3c(C)nnc(C)c3c2C)c1 |  | inconclusive: 89.1 µM [inhibitor, single point]
